Measurements published in the supplement of paper PMC3334620.
Whole data set: some 33,000 sequences, median “E-score (-0.5 to 0.5)” near -0.017, cut for the highest 2% near 0.3. This is one part of the list.

biological target: T1, Sut1 (UniProt P53032); assay: PBM E-score (8-mer binding enrichment) (E-score (-0.5 to 0.5)); higher = stronger / more preferred TF binding; most listed sequences are background and not binding sites; details: protein concentration: 200 nM; construct: GST-full length
T1 sequence: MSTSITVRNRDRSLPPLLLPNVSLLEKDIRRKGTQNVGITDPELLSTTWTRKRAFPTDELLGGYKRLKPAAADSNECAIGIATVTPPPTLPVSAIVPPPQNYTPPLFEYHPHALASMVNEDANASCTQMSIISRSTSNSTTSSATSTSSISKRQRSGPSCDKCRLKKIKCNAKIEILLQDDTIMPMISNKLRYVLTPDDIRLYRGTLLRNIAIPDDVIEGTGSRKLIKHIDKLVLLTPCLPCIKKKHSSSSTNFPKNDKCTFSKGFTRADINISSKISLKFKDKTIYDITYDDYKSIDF
Outline: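 Detection of bound protein used fluorescent anti-GST, with scans normalised by masliner. The proteins were GST-tagged yeast transcription factors applied at about 100-200 nM to universal all-10-mer Agilent arrays made double-stranded by primer extension. Each ungapped eight-base word, pooled with its reverse complement, was scored with an E-score from the Universal PBM Analysis Suite.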

Sequence | PBM E-score
TAGCCGGA | 0.282
GGGCAAAC | -0.148
CGTTCTGC | 0.0265
CTCGGCAC | -0.167
ACGTGTGG | -0.19
AAGGCTAC | -0.157
AGTTGTGG | 0.0614
ACCAAGCC | -0.27
ACACGTCT | -0.0318
AAACGAGC | -0.0772
CTACACCA | 0.0145
CTTGTACA | 0.102
ATTCACCA | 0.0944
CCAACATC | -0.12
AAACCGCT | -0.0687
CCTGAGCC | -0.332
ACATGGTC | -0.136
AGTTTAAT | 0.069
AATCTAAG | 0.0379
TCTTGGCA | -0.0212
CCGCCAAG | -0.255
CACACGTG | -0.266
GAGCACCA | -0.136
CATCCGTA | 0.0986
ACAAGACG | -0.1

Sequence | PBM E-score
CGCCTGGC | -0.255
GATCAAGC | -0.0368
AGGGGTGG | -0.277
CAAGACTG | -0.0769
GGTGGAGA | -0.291
CAATAGTG | 0.132
CAGATTGA | -0.0978
CTGGTGAC | -0.288
GGAAAGCA | 0.0465
TGTCGAAA | 0.0677
AGAAACTG | 0.0171
GGCAATAA | 0.0721
CTCCTGCC | 0.00035
CGAACTGC | -0.00207
CGACTTAA | 0.00564
ATCTAGTG | -0.0694
AGTAAGGG | 0.0361
GCACAATA | -0.214
ATTGGAAG | 0.147
ATGTATCC | 0.102
GATGCGAA | 0.124
GGCTCGCA | -0.193
ACCCTGCC | -0.0698
AGGAATAA | 0.0518
ATACCATG | -0.127

Sequence | PBM E-score
ACAAATCT | 0.0874
CCGATTTA | 0.246
ACCTAAGA | -0.00292
AGGGCACA | -0.105
GATCCTCA | 0.0258
ATGCCAGC | -0.25
CAGTCTCA | 0.0467
GGGATCCC | -0.0974
AGCATGAT | 0.0775
AGTAACAT | 0.106
AGACGTAG | -0.156
ATGGACGC | -0.014
ACCTACGC | -0.0423
AAGGCCGA | 0.115
CGCGAACG | -0.0292
AGCTGACC | 0.0565
AAACGATC | 0.118
GAATAGGC | -0.0173
CGGCCTCC | -0.215
GCTGGAAA | 0.0198
CATTTCAA | 0.275
GAGGCATA | 0.0426
AATCTCCG | 0.454
TGCCTGAA | -0.151
CTCCGATC | 0.38

Sequence | PBM E-score
ACTCACAG | 0.0594
CTCGGCCC | -0.209
AGGAATAG | 0.153
AAAGTATC | 0.174
ACTGCCGG | 0.0182
ATCGCCTC | -0.067
ATAAACCA | 0.0881
ACTACTGA | -0.178
GAAGGTGA | 0.00383
AGTGCTTC | 0.0385
AAAACTTC | 0.158
GGGATGAA | -0.138
AGCATTAC | 0.0106
CAAACGTC | -0.144
CCTAACTC | -0.0733
CTCGGACA | 0.354
CTCTGCCA | -0.129
GCATACCC | -0.135
ATATTAAC | 0.252
ATAACAAC | 0.14
GCTCGTTA | 0.00927
AATGGCTC | -0.024
CGTAGGCA | -0.169
CTAATTGA | 0.16
CCACAATA | -0.113

Sequence | PBM E-score
ATCTGATA | -0.17
ATTGTCTA | 0.193
GCAATCGC | -0.15
GCGGTAAA | 0.0988
ACGCTCCA | 0.0226
ATACCTCC | -0.11
ACCTCCCC | -0.237
CCCGCCCG | -0.117
AGATTGAA | 0.249
AACATACC | 0.12
TCTCCGAA | 0.446
ACAGGATA | -0.0461
TCATACCA | 0.032
GCTACAGA | -0.18
CCTGACCA | -0.102
CGCGGTAG | 0.0234
CAGACTTA | -0.227
ATCTCAAA | 0.0485
GCGACAAA | -0.0734
ACACTGAA | 0.083
CAAGACTA | -0.165
CATGGGAG | -0.223
TGTGGCAA | -0.0604
GACTCCAA | -0.0971
GAACTGCA | -0.0146

Sequence | PBM E-score
GATATCAA | 0.0835
CTGCTTAC | -0.138
ACAACAGC | 0.00492
AGCCCACG | -0.215
ATTCCGGG | 0.295
AGGTAATC | 0.177
CGCGTATC | -0.127
AGTTCTGA | 0.0627
CAACTTCA | -0.0874
TGGGAACA | -0.125
ATAAGACA | 0.0349
AAAGGGCA | -0.163
GTCCTATA | -0.113
AAGGGAGT | -0.113
CATGAAGA | 0.0508
AAATGCAA | 0.199
CGACGATA | 0.0118
AACGTGGA | -0.0715
AGACGAAG | 0.103
AAAGTCCT | 0.208
ACGCAAAG | -0.00456
ACGACTTG | -0.033
GTGTCTAA | -0.0776
CAAATCTA | 0.146
CCCTCGGC | -0.257

Sequence | PBM E-score
GAGTCTCC | 0.192
GCAAACAC | -0.238
AAGTTTTC | 0.233
CGACAAAG | 0.191
ATTCCTGC | -0.0439
CGCGAACC | -0.00585
CTGTTCTC | -0.0136
GCACTACC | -0.075
AAAAGAAA | 0.237
ACAGTCGA | -0.21
AAGCAGCG | -0.113
GCAATCCC | -0.0279
AGGTAACA | 0.0751
GAATGAAC | 0.18
GAACCCGA | -0.0651
CAGAACGC | -0.127
GCACGCGA | -0.151
CTAAGTCC | 0.114
CTCACTCC | 0.187
CTGAGTTC | 0.00543
GGGGTGAC | -0.108
TACCCAAA | -0.102
